“And” between values parts separate entries of the source, which are not always exact repeats. Equal values may be shown once. This list was built around the results that the source calls inconclusive (neither active nor inactive); the mix of calls is not that of the screen. A potency beside an inconclusive call is a rough fit, not a confirmed value. Some compounds were tested as several samples or in several runs, with calls that do not always agree. The source made the active and inactive calls. The call rests on the fitted dose curve; in most records, active means well fitted cell-killing curve with a large enough effect in the repeat runs; inconclusive means weak or mixed curves, or effect the other way; inactive means flat fitted curve, though single readings scatter.
assay: qHTS RealTime-Glo MT Cell Viability Assay in HEK293 cells - 40 hour (AID 1224874); settings: RealTime-Glo luminescence; max response: hits give low values; further: nearly all actives have a fitted effect of over 50% in size
Method in brief: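 Luminescence, which tracks viable cell number through reduction of the prosubstrate to a NanoLuc substrate, was read over continuous 37 C culture. Cells (600/well) were premixed with reagent and rested 5 h before 23 nL of compound in DMSO was pinned.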
On the % scale 0 is the no-effect control and ±100 the full control effect; potency means the concentration at half of the fitted maximal effect; tags describe the fitted curve by direction and shape.

Row | Structure (SMILES) | max response | Potency
1 | O=Cc1ccccc1S(=O)(=O)O | inactive: 7.86% | –
2 | CC(=O)N(O)CCCCCNC(=O)CCC(=O)N(O)CCCCCNC(=O)CCC(=O)N(O)CCCCCN | – | active: 21.3 µM
3 | CCN(CCO)c1cccc(C)c1 | inactive: 6.86% | –
4 | CN(C)C(=O)Nc1ccc(Cl)c(Cl)c1 | – | inconclusive: 48.8 µM [cytotoxic, partial curve, poor fit] and inconclusive: 30.9 µM [cytotoxic, partial curve]
5 | Cc1c(C)n(CCN(C)C)c2ccc(C(=O)OCCN(C)C)cc12 | – | inconclusive: 23.9 µM [cytotoxic, single point]
6 | CCN1CCCC1CNC(=O)c1cc(S(N)(=O)=O)ccc1OC (centres undefined) | – | inconclusive: 21.9 µM [cytotoxic, partial curve]
7 | CCCCCCCCCCCCCCCCN | inactive: 11.5% | –
8 | CC(=O)CC(=O)c1ccccc1 | – | inconclusive: 31.1 µM [cytotoxic, partial curve]
9 | CC(=O)OCc1ccco1 | inactive: 3.13% and inactive: 20% | –
10 | Cc1nc2ccc(CN(C)c3ccc(C(=O)N[C@@H](CCC(=O)O)C(=O)O)s3)cc2c(=O)[nH]1 | – | inconclusive: 0.268 µM [cytotoxic, full curve]
11 | CCCCc1ccc(N)cc1 | – | inconclusive: 21.9 µM [cytotoxic, full curve]
12 | COS(C)(=O)=O | inactive: 0.0927% and inactive: -3.51% | –
13 | CCCN1C=CN(C)C1 | inactive: -1.14% and inactive: -1.07% | –
14 | C=CC/C=C/C/C=C/C/C=C/C | inactive: 0% | –
15 | COc1ccc(C(=O)c2cccc(O)c2)c(OC)c1 | – | inconclusive: 48.9 µM [cytotoxic, single point]
16 | CC(C)(Sc1cc(C(C)(C)C)c(O)c(C(C)(C)C)c1)Sc1cc(C(C)(C)C)c(O)c(C(C)(C)C)c1 | inactive: 3.52% | –
17 | C[C@]12CCC(=O)C=C1CC[C@@H]1[C@@H]2CC[C@@]2(C)[C@H]1CC[C@]2(O)C(=O)CO | – | inconclusive: 23.9 µM [cytotoxic, single point]
18 | COc1cc(NC(=O)CC(C)=O)c(OC)cc1Cl | inactive: -13.4% | active: 12.3 µM
19 | Nc1ccc(Oc2cccc(Oc3ccc(N)cc3)c2)cc1 | – | inconclusive: 9.77 µM [cytotoxic, partial curve, poor fit]
20 | COc1cc(C)ccc1C(C)C | inactive: 3.29% | –
21 | COc1ccc(N=Nc2cc(C)c(N=Nc3ccc(S(=O)(=O)O)cc3)cc2OC)cc1 | inactive: -2.91% | –
22 | N#CCN(CC#N)CCN(CC#N)CC#N | inactive: 4.6% | –
23 | O=C(c1ccccc1)c1ccc(O)c(O)c1O | – | inconclusive: 44 µM [cytotoxic, partial curve]
